Experimental findings from PubChem BioAssay (EPA / NIEHS) are described below.

The nature of test [1]: ATG_EGR_CIS: Attagene CIS-FACTORIAL HepG2 Assay for human Early Growth Response 1 (EGR1) (AID 2282938). As to conditions: HepG2 Attagene CIS-FACTORIAL EGR reporter mRNA; actives raise or lower the signal. Summed up:
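Cell-based multiplex transcription assay: HepG2 carrying transfected cis-element reporter units, 24 h chemical treatment. Fluorescence from capillary electrophoresis of RT-PCR products gives mRNA levels; fitting is bidirectional relative to DMSO.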

In test [2] the target is Paired box protein Pax-6 (Homo sapiens) (UniProt P26367). In words: ATG_Pax6_CIS: Attagene CIS-FACTORIAL HepG2 Assay for human Paired Box 6 (PAX6) (AID 2282956). As to conditions: HepG2 CIS-FACTORIAL PAX6 reporter transcription, RNA readout; actives raise or lower the signal. Summed up: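 HepG2 cells transiently transfected with multiplexed cis-promoter reporter units (endogenous TF activity) were dosed for 24 h. Reporter mRNA was quantified by RT-PCR, 6-FAM labeling, HpaI digestion and capillary electrophoresis; bidirectional fitting versus DMSO baseline.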
Chain of UniProt P26367 (P26367 whole entry, looked up): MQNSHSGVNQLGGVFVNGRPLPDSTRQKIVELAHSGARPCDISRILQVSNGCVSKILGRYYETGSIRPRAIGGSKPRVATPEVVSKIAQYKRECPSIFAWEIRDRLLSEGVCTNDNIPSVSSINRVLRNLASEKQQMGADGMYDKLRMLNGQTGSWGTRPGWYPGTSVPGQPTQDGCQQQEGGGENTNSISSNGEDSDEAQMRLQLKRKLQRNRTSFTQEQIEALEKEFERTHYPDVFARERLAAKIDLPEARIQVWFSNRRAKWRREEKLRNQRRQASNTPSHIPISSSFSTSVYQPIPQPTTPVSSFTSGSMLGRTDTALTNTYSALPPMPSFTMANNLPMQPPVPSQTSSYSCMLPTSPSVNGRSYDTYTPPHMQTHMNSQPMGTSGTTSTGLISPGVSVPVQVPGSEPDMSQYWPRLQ

The nature of test [3]: ATG_SREBP_CIS: Attagene CIS-FACTORIAL HepG2 Assay for human Sterol Regulatory Element Binding (SREBP) (AID 2282962). As to conditions: HepG2 Attagene cis-factorial SREBP reporter, mRNA; actives raise or lower the signal. The gist of the method: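 HepG2 cells transiently transfected with multiplexed cis-element reporter units report endogenous transcription factor activity. After 24 h of chemical exposure, reporter mRNA was quantified by RT-PCR, 6-FAM labelling, HpaI digestion and capillary electrophoresis; bidirectional fits used DMSO as baseline.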

Some compounds were tested as several samples or in several runs, with calls that do not always agree. How the source made its calls: active means hit-call score of the fitted dose curve at least 0.9, where 1 is the maximum; inactive means score below 0.9. A number of entries come with more than one value. Only these are listed. There may be further records. Values that stand side by side are repeats (runs, samples, wells, individuals or studies).

The AC50 is the midpoint of the concentration-response curve, whichever way the signal moves. A lower AC50 goes with activity at low concentration. In the case of `C#C[C@]1(O)CC[C@H]2[C@@H]3CCc4cc(O)ccc4[C@H]3CC[C@@]21C`, the AC50 result in test [1] was “active: 30.1, 100, 27.1, 35.1 µM [separate samples]”; in test [2], “active: 32.3, 100, 27.4, 27.6 µM [separate samples]”; in test [3], “active: 43.3, 65.9, 9.14, 26.6 µM [separate samples]”.
